In the RNAGym collection of RNA variant scans (doi:10.1073/pnas.2313332121):
This sample is rich in variants without activity.

B1: TPR 5TU (parent)
chain: GGAUCUUCUCGAUCUAACAAAAAAGACAAAUCUGCCACAAAGCUUGAGAGCAUCUUCGGAUGCAGAGGCGGCAGCCUUCGGUGGCGCGAUAGCGCCAACGUUCUCAACUAUGACACGCAAAACGCGUGCUCCGUUGAAUGGAGUUUAUCAUG

Variants of: B1
Assay: polymerase ribozyme fitness, log enrichment relative to wild type (log ratio); higher = more active; in vitro selection for triplet polymerase activity
In short: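 Mutant libraries of both subunits of a heterodimeric triplet polymerase ribozyme were PCR-built, transcribed, and selected once in triplicate, with frozen incubation at −7 °C and capture of gel-excised extended constructs on streptavidin beads before RT-PCR. Illumina sequencing of input and output libraries was filtered to genotypes with ≥10 input reads and ≥1 read per output. Fitness is the logarithm of genotype enrichment over wild-type enrichment, using inverse-variance-weighted replicate averages. The logarithm is base 2.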

Point of comparison: G83U U139G, “polymerase ribozyme fitness (log ratio)” value -0.239. Against it:
- U82C G88A U104C G143A — lower, ≤ -4.2
- G81C U102G U130G G141A — lower, ≤ -4.2
- G83U C95G G124U U148C — lower, ≤ -4.2
- G83U G100U — lower, -3.9
- G83A G88U A89U G100U C125A — lower, ≤ -4.2
- G81C U109G A110U U134C — lower, ≤ -4.2
- G83A C93U — lower, -1.36
- G83C A147U — higher, 0.501
- U82G A98G G117A A122U — higher, 0.376
- C85A U102G A121G A122C — lower, ≤ -4.2
- G83C A138U C149G — lower, ≤ -4.2
- U82C C114U — lower, -1.99
- U82C A115G A138U — lower, -4.19
- G83C C96U C125A G128U C132U U144G A150G — lower, ≤ -4.2
- G83U A91G G143A A147C — lower, ≤ -4.2
- G83U A97G A142U — lower, -3.29
- U82G C95A — lower, -1.03
- G83A A97U A98U A138U — lower, -4.07
- G84A G140U — lower, -2.64
- G84A G140A — lower, -3.27
- G84A G86U C95A C99U U101A C123G — lower, ≤ -4.2
- G84C C96U C132G U144C — lower, ≤ -4.2
- G81U G84A — lower, -1.28
- U82C G84A G117U — lower, -0.688
- U82A G84U G94U A150G — lower, ≤ -4.2
- G83A U135G — lower, ≤ -4.2
- U82A C93G G126U — lower, -2.84
- G84A U144G — higher, 0.394
- G83C C99A G133A — lower, -4.12
- C85A C103A C149U — lower, -3.27
- G83U U146A — lower, -1.19
- U82G A91U — lower, ≤ -4.2
- G83A U151G — lower, -3.97
- G83C U148A — lower, -3.1
- G83C G136C U146G — lower, -3.41
- G83C U90G A91U G92C C123A U151C — lower, ≤ -4.2
- G81C C87A A91U C93U C114G A138C G141C — lower, ≤ -4.2
- U82A C129A — lower, -2.19
- G81A C99G G100C G128A U146G — lower, ≤ -4.2
- G84A G92U A107U G140C G143C — lower, ≤ -4.2
- G81A G84A C85G A106U C129A U144C — lower, ≤ -4.2
- G81U C85G G117C U148G — lower, ≤ -4.2
- C85A G92U C131G G152C — lower, ≤ -4.2
- G81U G84U A119U G143A — lower, -1.61
- U82G G83A A89G A106G G128A — lower, ≤ -4.2
- U82C A115G — lower, -0.965
- C85A A107G G117U G136A A150G — lower, ≤ -4.2
- G83C C103G G126U A147C — lower, ≤ -4.2
- G83U G88A — lower, ≤ -4.2
- G83C G152C — lower, -3.16
- G83A C85G C96A — lower, ≤ -4.2
- G84A A110G C114G — lower, ≤ -4.2
- G83C C116A A121C — higher, 0.158
- G83U G140A U144A — lower, ≤ -4.2
- G83U G112C A115G C131U C132U — lower, ≤ -4.2
- G83U A106U C131G G133C G140U — lower, ≤ -4.2
- G83U C87U — lower, -1.25
- C85A A106G C125A U130G U139C — lower, ≤ -4.2
- C85A A142U — lower, -1.59
- C85A C95A C96G U109C A110C G117C U135C A138C U146G A147C U151G — lower, ≤ -4.2
- G83U C93G — lower, ≤ -4.2
- U82A G124A — higher, 0.114
- G83A G88U U111G U135A — lower, ≤ -4.2
- G83A C95A A113U — lower, -3.12
- G84U G88C A110C U134A — lower, ≤ -4.2
- C85A G86U U101G C129U — lower, ≤ -4.2
- G83A C108U C125G — lower, -3.77
- G83A C108U — lower, -3.01
- C85A C108U A142U — lower, ≤ -4.2
- G84A A138G G141A U144G — lower, ≤ -4.2
- U82A G83C C123U — lower, -1.12
- G83C A98G — lower, -3.71
- G81A G152C — lower, -3.29
- U82C C96G A120U U127G — lower, -2.72
- C85A U90C C114U — lower, ≤ -4.2
- G84A U101A C103G G140A U146A A150G — lower, ≤ -4.2
- G84A U148A — lower, -2.74
- G84A U148C — lower, -2.65
- G83C C95U G126A — lower, -2.05
- C85A G94A — lower, -1.74
- G81U C85U A115C G136C — lower, -3.36
- G84A A121C U127G — lower, -2.56
- C85A C95U C116U G128C G140U — lower, ≤ -4.2
